Assay results reported in PubChem BioAssay AID504706 (National Center for Advancing Translational Sciences (NCATS), 2011).
Hit rate of the full screen: of about 320,000 compounds, about 200 (0.062%) were called active. This list was built around the results that the source calls inconclusive (neither active nor inactive); the mix of calls is not that of the screen. Calls come from the whole dose curve; as a rule, active = well fitted activation curve with a large enough effect; inconclusive = small, poorly fitted or top-dose-only effect; inactive = no such curve, though single readings can be large or run the other way. Potencies of inconclusive entries are left out as doubtful fits.
Potency is the fitted concentration of half-maximal effect; tags give direction and shape of the fitted curve.

Assay: qHTS assay for re-activators of p53 using a Luc reporter; note: nearly all actives have a fitted effect of over 45% in size
Conditions: H1299 p53-A138V BP100-luciferase reporter, luminescence, 24 h; series mostly up to 92.2 µM
Summary of the method: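 H1299 (p53-null), stable ts p53-A138V + BP100-Luc; 1000 cells/well, Opti-MEM/10% FBS; cpd 4 pt, 1:5; 24 h, 37 deg C, 5% CO2; detection reagent 10 min RT; luminescence.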
With `COc1ccc(C(=O)Cc2cc(OC)c(OC)cc2[N+](=O)[O-])c(OC)c1` the Potency was “inactive”.
With `CN1c2ccsc2/C(=N/Nc2ccccc2)CS1(=O)=O` the Potency was inconclusive [activator, partial curve, poor fit].
In the case of `COc1ccc(-c2c(C)nc3c(-c4ccccn4)cnn3c2N)cc1`, the Potency is reported as inconclusive [activator, partial curve, poor fit].
With `COCc1c(C(=O)OCc2nc3ccsc3c(=O)[nH]2)oc2ccccc12` the Potency was “inactive”.
For `Cc1ccc(C(=O)Nc2sc(C)c(-c3ccccc3)c2C(N)=O)cc1[N+](=O)[O-]`, the Potency was inconclusive [activator, partial curve, poor fit].
With `COc1ccc(CNC(=O)c2noc3c2CCCC3)cc1` the Potency was inconclusive [activator, partial curve, poor fit].
In the case of `O=C(NCCN1C(=O)S/C(=C\c2cccs2)C1=O)c1ccc(=O)[nH]c1`, the Potency is reported as inconclusive [activator, partial curve, poor fit].
With `O=C(Nc1ccncc1)Nc1cccc(Cl)c1` the Potency was “inactive”.
In the case of `COc1ccccc1CNC(=O)COC(=O)/C=C/c1ccc2c(c1)OCO2`, the Potency is reported as inconclusive [activator, partial curve, poor fit].
In the case of `COc1ccc(NS(=O)(=O)c2cccc(C(=O)O)c2)cc1`, the Potency is reported as inconclusive [activator, partial curve, poor fit].
With `COc1ccc2cc1Oc1ccc(cc1)C[C@H]1c3cc(c(OC)cc3CCN1C)Oc1c(OC)c(OC)cc3c1[C@H](C2)N(C)CC3` the Potency was “inactive”.
With `N/C(=N\O)C1COc2ccccc2O1` (stereo unspecified) the Potency was inconclusive [activator, single point].
In the case of `COC(=O)c1ccc(C(=O)N2CCCC(N3CCN(c4ccc(F)cc4)CC3)C2)nc1` (stereo unspecified), the Potency is reported as inconclusive [activator, single point].
For `Cc1ccc(CNC(=O)CCn2c(=O)oc3ccccc32)cc1`, the Potency was “inactive”.
For `CC(=O)c1cccc(NC(=O)COC(=O)c2ccccc2C)c1`, the Potency was inconclusive [activator, partial curve, poor fit].
For `CCn1c2ccccc2c(=O)c2ccccc21`, the Potency was “inactive”.
With `Cc1cc(=O)oc2cc(OCC3CC(c4ccccc4Cl)=NO3)ccc12` (stereo unspecified) the Potency was inconclusive [activator, partial curve, poor fit].
In the case of `CN1CCC(OC(=O)COc2ccc(Br)cc2)CC1`, the Potency is reported as “inactive”.
For `O=C(NC1CCCCC1)c1ccc(Cn2cc(Br)cn2)o1`, the Potency was “inactive”.
In the case of `COc1ccc(/C=C2\SC(=S)N(c3cccnc3)C2=O)cc1`, the Potency is reported as “inactive”.
With `COc1cc(/C=N/NC(=O)c2nnn(-c3nonc3N)c2C(C)C)ccc1O` the Potency was “inactive”.
For `CCOC(=O)c1ccc(-n2cccc2/C=C2\NC(=O)NC2=O)cc1`, the Potency was inconclusive [activator, partial curve, poor fit].
In the case of `COc1ccccc1-n1cc([C@@H]2C[C@H]3CN(c4ccccc4)C(=O)[C@]34CCCN24)cn1`, the Potency is reported as “inactive”.
For `Cc1ccc(CN2CC(C(=O)Nc3cc(C)ccn3)CC2=O)cc1` (stereo unspecified), the Potency was inconclusive [activator, partial curve, poor fit].
In the case of `C/C(=C\C(=S)Nc1ccccc1)Nc1ccc2ccccc2c1`, the Potency is reported as inconclusive [activator, partial curve, poor fit].
For `CCOc1cc(C2c3c(n[nH]c3C)C(=O)N2c2ccc(Br)cc2)ccc1O` (stereo unspecified), the Potency was inconclusive [activator, full curve, poor fit].
With `Cc1ccccc1C(=O)N1CCC(C(=O)Nc2ccc(S(=O)(=O)N3CCCCC3)cc2)CC1` the Potency was “inactive”.
With `COc1cc(/C=C2/C(=O)NN(c3cccc(C)c3)C2=O)ccc1OC(=O)c1ccco1` the Potency was inconclusive [activator, full curve, poor fit].
In the case of `CCCCCc1cc(=O)oc2c(C(CCN3CCCCC3)c3ccc4c(c3)OCO4)c(OC)cc(OC)c12` (stereo unspecified), the Potency is reported as “inactive”.
For `COc1ccc(C(=O)Nc2cnn(Cc3c(F)cccc3Cl)c2)cc1OC`, the Potency was “inactive”.
With `COc1cccc(N=Nc2c(=O)[nH]n3c(=O)c4c([nH]c23)CCC4)c1` the Potency was “inactive”.
With `Cc1ccc(N2C(=N)/C(=C3/Nc4ccccc4S3)C(c3ccccc3)C2=O)cc1` (stereo unspecified) the Potency was inconclusive [activator, partial curve, poor fit].
For `CC(=O)[C@@]1(O)CCC2C3C=CC4=CC(=O)CC[C@]4(C)C3CC[C@@]21C` (stereo partly specified), the Potency was inconclusive [activator, single point].
With `CC(C)(C)OC(=O)N/N=C/c1ccc(N2CCOCC2)s1` the Potency was inconclusive [activator, partial curve, poor fit].
With `CCNC(=S)N/N=C/c1ccc(F)cc1` the Potency was “inactive”.
With `O=C(Nc1nc(-c2ccccn2)cs1)c1ccc([N+](=O)[O-])o1` the Potency was inconclusive [activator, single point].
In the case of `O=C(CNC(=O)c1cccs1)c1ccc(Br)cc1`, the Potency is reported as inconclusive [activator, full curve, poor fit].
For `O=C(OCCCN1C(=O)c2ccccc2C1=O)c1ccco1`, the Potency was inconclusive [activator, full curve, poor fit].
For `Cc1ccc(-c2nnc(-c3ccccc3)o2)cc1`, the Potency was inconclusive [activator, partial curve, poor fit].
In the case of `CCC(=O)N(Cc1cc2ccccc2[nH]c1=O)C(C)C`, the Potency is reported as “inactive”.
For `CSCCOC(=O)c1[nH]c2c(c1C)C(=O)CC(c1ccco1)C2` (stereo unspecified), the Potency was “inactive”.
For `COc1ccccc1N1CCN(/N=C\C(Br)=C\c2ccccc2)CC1`, the Potency was inconclusive [activator, single point].
With `CC(=O)c1ccc(NC(=O)COC(=O)c2ccccc2N=Nc2ccc(N(C)C)cc2)cc1` the Potency was inconclusive [activator, partial curve, poor fit].
For `CC(C)(C)OC(=O)C[C@@H]1C/C=C\C[C@H](CC(=O)N[C@H](CO)Cc2ccccc2)C(=O)N[C@@H](Cc2c[nH]c3ccccc23)COC1=O`, the Potency was “inactive”.
For `COc1ccccc1Nc1ccc(Nc2ccccc2OC)nn1`, the Potency was inconclusive [activator, partial curve, poor fit].
With `Cc1nn(-c2ccccc2)cc1/C=N/O` the Potency was inconclusive [activator, partial curve, poor fit].
For `O=C(CSc1nc2ccccc2o1)c1ccccc1`, the Potency was inconclusive [activator, partial curve, poor fit].
With `COC(=O)N/N=C/c1c(C)nn(-c2cccc(Cl)c2)c1Cl` the Potency was inconclusive [activator, partial curve, poor fit].
For `COCc1nc2oc3ccc(C)cc3c(=O)c2cc1C(=O)OC`, the Potency was “inactive”.
In the case of `O=C(N/N=C\c1cccc([N+](=O)[O-])c1O)C1COc2ccccc2O1` (stereo unspecified), the Potency is reported as inconclusive [activator, partial curve, poor fit].
For `O=C(Nc1ccc(N2CCOCC2)cc1)NC1CCCCC1`, the Potency was inconclusive [activator, single point].
In the case of `COc1ccc(S(=O)(=O)NC2CC3CCC2C3)cc1Br` (stereo unspecified), the Potency is reported as inconclusive [activator, single point].
With `COC(=O)c1ccccc1NC(=O)Nc1ccc(C)cn1` the Potency was “inactive”.
For `CN1CCN(C(=O)/C=C/c2ccccc2)CC1`, the Potency was inconclusive [activator, single point].
For `Cc1coc2c1C(=O)C(=O)c1c-2ccc2c(C)cccc12`, the Potency was inconclusive [activator, partial curve, poor fit].
For `Cn1nnnc1SCC(=O)c1ccc(Br)s1`, the Potency was inconclusive [activator, single point].
In the case of `O=c1c2ccccc2ncn1-c1ccc(Cl)cc1`, the Potency is reported as inconclusive [activator, single point].
In the case of `O=C(NCc1ccccc1)Nc1cccn(Cc2ccccc2Cl)c1=O`, the Potency is reported as “inactive”.
For `Nc1c(C=C2C=CC(=O)C=C2)c(=O)nc2snc(SCc3ccccc3)n12`, the Potency was “inactive”.
For `CC(=O)c1ccc(NC(=O)Nc2cccc(Cl)c2)cc1`, the Potency was inconclusive [activator, partial curve, poor fit].
In the case of `CC(C)NC(=O)NC(=O)CSc1ccc(S(=O)(=O)N2CCCC2)cn1`, the Potency is reported as inconclusive [activator, single point].
With `O=C(Nc1ccc2c(c1)OCO2)OCc1ccccc1` the Potency was inconclusive [activator, full curve, poor fit].
For `O=C(c1ccc(COc2ccccc2[N+](=O)[O-])o1)N1CCCCCC1`, the Potency was inconclusive [activator, single point].
For `Cc1csc(NC(=O)c2sc3nc(-c4cccs4)ccc3c2N)n1`, the Potency was “inactive”.
With `CCc1ccc(S(=O)(=O)Nc2ccc(-c3nc4cccnc4s3)cc2)s1` the Potency was inconclusive [activator, single point].
In the case of `CC(NC(=O)Cc1ccccc1)c1nc2ccccc2[nH]1` (stereo unspecified), the Potency is reported as inconclusive [activator, single point].
With `CCNC(=S)NNC(=O)c1cc(-c2cc(C)ccc2C)nc2ccccc12` the Potency was “inactive”.
With `COc1cc(OC)c(OC)cc1CN1CCCC(C(=O)c2ccccc2SC)C1` (stereo unspecified) the Potency was inconclusive [activator, single point].
With `O=C(NNC(=S)NC1CCCCC1)c1ccccc1Br` the Potency was “inactive”.
For `O=C(c1cc2c(s1)CCCC2)N1CCN(Cc2ccc3c(c2)OCO3)CC1`, the Potency was “inactive”.
For `COc1cccc(NC(=O)CSc2nnc(-c3cccc(OC(C)C)c3)n2N)c1`, the Potency was inconclusive [activator, partial curve, poor fit].
